Among the test systems are AURKA; AURKB; AURKC; AXL; BLK; BMPR1A.
Holding throughout (settings): concentration: 1 μM,replicates: in singlicate; n = 1
A further experiment concerns T1, ARK5.
T1 construct: gene NUAK1

In another experiment the test system is T2, ASK1.
T2 construct: gene MAP3K5

For the next experiment, the system named is T3, ASK2.
T3 construct: gene MAP3K6

For a further experiment, the system named is T4, BIKE.
T4 construct: gene BMP2K

For part of these data: The strong results were mostly taken out for another list; the other results follow. This is a selection; strong and weak results do not stand in their true shares.
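Also: KINOMEscan kinase panel screen.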

In the case of `O=C1NC(=O)C(c2ccccc2Cl)=C1Nc1cccc(C(=O)O)c1` [SB-390526], the “%Inh” value with ARK5 is given as 0%; in the experiment with ASK1, 9%; with ASK2, 5%; with AURKA it was 8%; with AURKB, 15%; in the experiment on AURKC, 0%. The “%Inh” value in the experiment with AXL came out at 0%; in the experiment with BIKE, 0%; in the experiment with BLK it was 14%; in the experiment with BMPR1A it was 0%.
On to `O=C1NC(=O)C(c2ccc(Cl)cc2)=C1Nc1cccc(O)c1` [SB-333613], for which the “%Inh” value is recorded as 2% with ARK5; 0% in the experiment with ASK1; 23% in the experiment on ASK2; 30% in the experiment on AURKA; 35% in the experiment with AURKB; 10% in the experiment on AURKC. The “%Inh” value in the experiment on AXL is reported as 12%; with BIKE, 0%; with BLK, 0%; with BMPR1A it was 6%.
On to `O=C1NC(=O)C(c2ccccc2)=C1Nc1ccc(Cl)c(C(=O)O)c1` [SB-390532], for which the “%Inh” value in the experiment with ARK5 is 0%; in the experiment with ASK1, 8%; with ASK2, 0%; in the experiment on AURKA, 10%; in the experiment with AURKB it was 32%; in the experiment on AURKC it was 0%. The “%Inh” value was found to be 0% in the experiment with AXL, 0% with BIKE, 20% in the experiment on BLK and 0% in the experiment on BMPR1A.
As to `CS(=O)(=O)c1ccccc1-c1nc(-c2ccc(F)cc2)c(-c2ccncc2)[nH]1` [SB-213663], the “%Inh” value with ARK5 was determined as 0%; in the experiment on ASK1, 0%; in the experiment on ASK2, 0%; with AURKA, 10%; in the experiment with AURKB, 0%; in the experiment with AURKC it was 0%. The “%Inh” value in the experiment on AXL was determined as 40%; with BIKE, 0%; with BLK, 25%; in the experiment with BMPR1A, 8%.
Regarding `O=C1NC(=O)C(c2ccc(Cl)cc2)=C1Nc1ccc(O)c(Cl)c1` [SB-405367], the “%Inh” value in the experiment on ARK5 turned out to be 0%; in the experiment with ASK1 it was 0%; with ASK2 it was 0%; with AURKA it was 15%; in the experiment with AURKB, 1%; with AURKC, 0%. The “%Inh” value in the experiment on AXL is recorded as 29%; in the experiment on BIKE, 0%; in the experiment on BLK, 0%; with BMPR1A, 12%.
With `COc1ccc(C2=C(Nc3cccc(Cl)c3)C(=O)NC2=O)cc1` [SB-326892], the “%Inh” value with ARK5 is on record as 100%; with ASK1 it was 4%; in the experiment with ASK2, 0%; in the experiment on AURKA, 1%; in the experiment with AURKB, 0%; with AURKC it was 20%. The “%Inh” value was 2% in the experiment with AXL, 24% in the experiment on BIKE, 6% with BLK and 10% in the experiment with BMPR1A.
Regarding `O=C1NC(=O)c2c1c(-c1ccccc1)cc1[nH]c3ccc(O)cc3c21`, the “%Inh” value with ARK5 was 39%; in the experiment with ASK1, 26%; in the experiment on ASK2, 3%; in the experiment on AURKA, 56%; in the experiment on AURKB it was 76%; in the experiment with AURKC, 47%. Also, the “%Inh” value with AXL is on record as 4%; in the experiment on BIKE it was 93.8%; in the experiment on BLK it was 0%; in the experiment with BMPR1A, 14%.
With `O=C1NC(=O)C(c2ccc(Cl)cc2)=C1Nc1cccc(C(=O)O)c1` [SB-360737], the “%Inh” value is on record as 3% with ARK5; 12% with ASK1; 15% in the experiment on ASK2; 1% with AURKA; 15% in the experiment with AURKB; 12% with AURKC. Moreover, the “%Inh” value stood at 0% in the experiment with AXL, 18% in the experiment with BIKE, 0% with BLK and 4% in the experiment on BMPR1A.
Consider `CSc1ccc(NC2=C(c3cccc(Cl)c3)C(=O)NC2=O)cc1` [SB-341528], for which the “%Inh” value is 0% in the experiment with ARK5; 42% with ASK1; 4% with ASK2; 6% with AURKA; 0% in the experiment on AURKB; 4% with AURKC. For the same compound, the “%Inh” value is 7% in the experiment with AXL, 7% in the experiment on BIKE, 0% in the experiment with BLK and 13% in the experiment with BMPR1A.
For `COc1cccc(C2=C(Nc3ccc(SC)cc3)C(=O)NC2=O)c1` [SB-331032], the “%Inh” value with ARK5 came to 0%; with ASK1 it was 12%; in the experiment with ASK2, 0%; with AURKA it was 28%; in the experiment on AURKB, 25%; in the experiment on AURKC it was 0%. The “%Inh” value in the experiment on AXL worked out at 0%; in the experiment with BIKE, 31%; in the experiment on BLK, 23%; in the experiment with BMPR1A, 0%.
Regarding `O=C1NC(=O)C(c2ccccc2Cl)=C1Nc1ccccc1` [SB-376715], the “%Inh” value worked out at 0% with ARK5; 42% with ASK1; 0% in the experiment on ASK2; 27% with AURKA; 0% in the experiment on AURKB; 14% in the experiment on AURKC. The “%Inh” value is on record as 12% in the experiment with AXL, 15% with BIKE, 0% in the experiment with BLK and 0% in the experiment with BMPR1A.
`Cc1ccc(C)c(Oc2nccc(-c3c(-c4ccc(F)cc4)ncn3C3CCNCC3)n2)c1.O=C(O)C(F)(F)F.O=C(O)C(F)(F)F.O=C(O)C(F)(F)F` [SB-284852]: the “%Inh” value in the experiment on ARK5 is listed as 0%; with ASK1 it was 1%; in the experiment with ASK2, 0%; with AURKA it was 0%; in the experiment with AURKC it was 47%; with AXL it was 0%. Further, the entries for the “%Inh” value with BIKE, in the experiment with BLK and in the experiment with BMPR1A were 17%, 1% and 0%, respectively.
As for `O=C1NC(=O)C(c2ccccc2)=C1Nc1cc(Cl)c(O)c(Cl)c1` [SB-390530], the “%Inh” value in the experiment on ARK5 is 0%; in the experiment on ASK1, 0%; in the experiment on ASK2 it was 0%; with AURKA it was 9%; in the experiment on AURKB, 13%; in the experiment with AURKC, 23%. Moreover, the “%Inh” value in the experiment with AXL amounted to 0%; with BIKE, 33%; in the experiment on BLK, 0%; in the experiment on BMPR1A, 21%.
On to `O=C(O)c1ccc(-c2nc(-c3ccc(F)cc3)c(-c3ccncc3)[nH]2)cc1` [SB-202620], for which the “%Inh” value in the experiment with ARK5 is recorded as 46%; with ASK1, 23%; in the experiment with ASK2, 0%; in the experiment on AURKA, 40%; in the experiment on AURKB, 32%; in the experiment on AURKC, 0%. Also, the “%Inh” value in the experiment on AXL is listed as 19%; with BIKE it was 0%; in the experiment with BLK, 36%; in the experiment on BMPR1A it was 15%.
For the compound `O=C1NC(=O)C(c2ccc(Cl)cc2)=C1Nc1ccccc1` [SB-317661], the “%Inh” value stood at 0% with ARK5; 0% in the experiment on ASK1; 0% with ASK2; 19% with AURKA; 45% in the experiment on AURKB; 0% with AURKC. In addition, the “%Inh” value with AXL, in the experiment with BIKE, with BLK and in the experiment on BMPR1A was 0% in each case.
On to `Cc1cc(C)cc(Oc2nccc(-c3c(-c4ccc(F)cc4)ncn3C3CCNCC3)n2)c1.O=C(O)C(F)(F)F.O=C(O)C(F)(F)F.O=C(O)C(F)(F)F` [SB-284851], for which the “%Inh” value turned out to be 53% with ARK5; 1% in the experiment on ASK1; 0% in the experiment on ASK2; 0% with AURKA; 14% with AURKB; 8% in the experiment with AURKC. For the same compound, the “%Inh” value in the experiment on AXL was determined as 0%; with BIKE, 15%; with BLK it was 9%; in the experiment with BMPR1A, 0%.

For the origin of these results see PMC5540273 (PLoS ONE, 2017).
